Whole data set: some 33,000 sequences, median “E-score (-0.5 to 0.5)” near -0.013, cut for the highest 2% near 0.3. The list shows a part of the results.
The sequences below were run against T1, Msn1 (UniProt P22148) (assay: PBM E-score (8-mer binding enrichment) (E-score (-0.5 to 0.5)); higher = stronger / more preferred TF binding; most listed sequences are background and not binding sites). Conditions: protein concentration: 200 nM; construct: GST-full length.
T1 sequence: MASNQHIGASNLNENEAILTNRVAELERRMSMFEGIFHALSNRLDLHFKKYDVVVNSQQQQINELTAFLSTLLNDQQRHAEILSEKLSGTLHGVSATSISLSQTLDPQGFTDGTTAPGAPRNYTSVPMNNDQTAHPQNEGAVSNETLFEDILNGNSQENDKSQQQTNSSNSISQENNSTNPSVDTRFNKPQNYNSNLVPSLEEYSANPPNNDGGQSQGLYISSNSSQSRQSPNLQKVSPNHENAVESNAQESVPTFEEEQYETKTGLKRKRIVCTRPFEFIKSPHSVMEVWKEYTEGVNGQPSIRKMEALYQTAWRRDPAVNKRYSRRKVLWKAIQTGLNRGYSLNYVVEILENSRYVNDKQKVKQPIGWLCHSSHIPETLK
Method: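 Universal 'all 10-mer' protein binding microarrays (Agilent AMADID 015681) probed with GST-tagged S. cerevisiae TFs (full-length or DBD) made by in vitro transcription/translation (PURExpress), about 100-200 nM. Bound TF was detected with fluorescent anti-GST. Each ungapped 8-mer (which stands for itself and its reverse complement) is scored by the PBM enrichment score (E-score), a modified Wilcoxon-Mann-Whitney statistic from -0.5 to +0.5, computed with the Universal PBM Analysis Suite. Scale: above 0.35 generally sequence-specific binding.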

Sequence	PBM E-score
CCTCGCAA	-0.125
GCGCGCCA	0.16
ACATCTAA	0.00922
GTGGTTTA	0.133
CAGAGCGA	0.0759
TTATTCAA	0.248
AGGGGCGA	-0.345
AGCAGTAA	-0.155
AGGGTCCA	-0.141
AGTCAAAT	0.0314
ATGATAGG	-0.0635
GCATACGC	-0.124
ATACCCGA	0.0193
ACTCTTGC	-0.0192
AGAGTAGG	0.0296
CGCTTCAC	-0.165
GGGGAACA	-0.0474
ATCTGAGG	0.0541
CGACCCAA	0.00093
GAATTGTC	0.392
CTCCCGCC	-0.096
ACGTTCTC	0.0126
AGCAGAGG	-0.194
CCCCATAA	-0.103
CCTATTAG	0.0445

Sequence	PBM E-score
AGGGATTC	-0.045
CAGCATCG	-0.0468
CGCTGGCA	0.00356
CCATATGC	0.124
GCAGGACC	-0.0863
GTTTCCGA	0.0235
CCACTATA	0.133
CCCATTCG	-0.194
GCCGGAGC	-0.0769
AAGCCCTG	-0.214
AATTTTGC	0.0375
AATATGCG	0.0982
GAAATGAC	0.216
AGAATGCC	0.0124
AGTGAACA	0.0807
TGGTCGAA	-0.224
TAGAAATA	0.0788
GATTTGTA	0.31
GTTGTTGA	0.0826
CGCTTTAG	-0.0315
GATCTATA	0.102
CTGGCCAC	-0.0526
ACCTGTCC	0.297
AGTTAGCC	-0.0848
CAAACCCG	0.169

Sequence	PBM E-score
GGAACTGA	-0.00145
ACGGATAG	-0.0859
ATGTAAGG	0.0666
CGCTTCTC	-0.093
GACTAATA	0.283
CCAGAGCC	-0.199
CAGCGTCG	-0.0618
ACGGCCGA	0.179
CATGTTTA	0.027
CATTCACA	-0.00532
ACTTGCTC	-0.118
CTCTTCTC	-0.328
CCCAGGCG	-0.144
ACCATAAT	0.0924
ATCTACTG	0.0386
GCACGTTA	-0.123
ACCGACGT	0.097
ACCTGTTC	-0.0766
AAAGACAA	0.418
AACGGTTC	0.0316
CACAGTGA	0.0942
CATGTGGG	-0.0995
GTCAGTTA	0.0735
ACACCATC	-0.0519
AGCACAAT	0.0538

Sequence	PBM E-score
GTAATAAA	0.202
CCGGCAAA	0.148
ACCTAGTG	-0.00377
CAACTTCC	0.143
AGAGACTA	-0.0629
CACAGCTC	-0.0937
AAGATTGG	0.0874
GGCACGAC	-0.0715
AAATTCTG	0.168
CACAGATC	0.0954
AATGGGTC	-0.277
CGTCGTAA	-0.0032
CCGATCCC	-0.203
AAATGCAG	0.181
GCGCCATA	-0.0747
AGTTTGCA	-0.0958
TCTTGCCA	-0.0456
TCAGGGAA	-0.0838
GACCCGCC	-0.0937
GCCAATAC	-0.152
ATAAGTGA	-0.0082
AATCAGGA	-0.0564
AGCTGCCC	0.0115
AGCGTAGA	-0.0952
ACAACGGA	0.304

Sequence	PBM E-score
ATCACATG	-0.0789
AGATGGCT	-0.0689
AAGCTCAC	-0.119
CCCCTCGG	-0.0601
ATTCATTG	0.0603
GCTTGCGA	0.158
ACCACGAC	-0.142
CTGATCCC	-0.318
CTACATAG	0.0928
ACGGGACC	-0.247
CTCGAGGA	-0.0212
ACATGGTG	0.222
AAGAGCAT	0.0863
AGTATCAG	-0.0273
ATGGCAAG	0.0283
AGCGCTTC	-0.00484
CAAAATGG	0.133
CCCGAACG	0.12
TAACGGAA	0.147
ACCCGGGT	-0.218
CACTTGGG	-0.13
TGCCACAA	0.16
CAACATTC	-0.11
CGTTACGC	-0.011
CCCCCTTC	-0.455

Sequence	PBM E-score
CTAAAAGC	-0.0186
AAATGTTC	0.284
ATTCCGCA	0.0586
CTTTGAGA	0.125
AACCCATG	0.0122
TTAAGGAA	0.051
CTAGATCA	-0.071
ACCGTGAG	-0.224
AGGAAAGG	-0.18
ACACGAAG	0.152
CTTGCTGC	-0.146
CGTTCAAC	0.109
GATGCAAC	-0.167
AGCTCATC	-0.267
AACTCGAA	0.0292
CGCAGTAC	-0.045
GACGGGCA	-0.182
CCTAACAG	-0.0289
TCGCCTAA	0.0838
CATGGCTA	-0.0195
GCTTATTA	0.0314
ACGTTATG	0.0794
GGACAGAA	0.332
AAACTAGT	0.0401
GATTCCGA	0.0558

Sequence	PBM E-score
ATGAGCGC	-0.0886
CGCTCTTC	-0.111
AAAGATTA	0.258
AGCCGCGA	-0.00879
ATACGAGG	-0.0611
CGTCGCGC	-0.085
GGACGATA	-0.157
ACTCGCCG	0.163
CATCCCGC	-0.125
CAGACTCA	-0.093
GTACACCA	-0.038
CGGTAAAG	0.118
ACTCAAGC	-0.0463
GATCGCAC	-0.0743
CTGGACCC	-0.155
ACGATCTA	0.0183
ACTGGTCG	-0.083
GACAGCAA	0.102
ACGGATGG	0.00913
CATTGCCC	-0.148
ATGTTAAA	0.0729
AGTAATCC	-0.114
AGGGCGAG	-0.274
ACGAGGGC	-0.0717
GCCTCATA	-0.175

Sequence	PBM E-score
CCCTGATA	-0.231
GAAGAGTC	-0.11
CTGATTCA	0.0146
GACTATCA	-0.0683
CGTCGATA	0.0412
ATCAAAAC	0.00367
CAGTTGGA	0.0318
ACCTCTTA	0.0962
AAAGGCTC	-0.0569
TCTCACAA	-0.0426
AATGAGCT	-0.00686
ATCGCAAC	-0.0713
AATATGCA	-0.0554
ATCAGACC	-0.192
GATGTAGC	-0.119
GGAAGTCC	0.178
CAAGCAGG	-0.205
AATCTGAA	-0.0472
ACGGCCAA	-0.0109
CGTCTCGC	-0.0165
AGCAACTC	-0.0296
CTCCGTTC	0.0736
AATCTAGC	-0.149
TAGCATCA	-0.00027
TCCCAAAA	0.224

Sequence	PBM E-score
GCATCAGC	-0.163
CACAGACC	0.0741
CACATAGA	0.116
CACTCTCA	-0.181
GAAATTAA	0.34
ACAGATCA	0.119
GGCGTGGA	-0.127
TCATAACA	0.139
CCTTACGA	-0.0982
ATCTCTAA	0.026
TAAAATTA	0.213
AGAACCCG	-0.15
ATTTATCC	0.221
CGATACCC	-0.119
AATAACGA	0.0732
AGTGTTCG	0.093
ATACACGA	0.0174
AGACAGGC	0.0437
AAGGTCCT	-0.0223
AATCGAGT	-0.0102
CATACATA	0.174
GATGTTTA	0.0255
ATAATAGA	0.107
CGACCACC	-0.306
AATTGAAT	0.128

Sequence	PBM E-score
CCACCACC	-0.209
ATCCGCGG	0.033
GTGACCCA	-0.0261
CTACCACC	-0.303
CGTGCACG	0.0616
CAGGCCCA	-0.143
ATCGAAAC	-0.0353
GTACCAAC	0.189
CCTGCGCA	-0.0866
GCCTAAAA	-0.077
ACGCTGAC	0.0717
CTTACGCC	-0.0895
TACATCGA	0.21
ATCGGGTA	-0.205
AGGAATCC	-0.197
CCAGTTCG	-0.0865
ACGCGTTG	-0.0259
CAGTGACG	0.052
GCTGTTAA	0.0198
CCGTCCTA	-0.0332
ACAGCTAT	-0.114
CATCGACC	-0.0813
ACGGCACT	0.0409
AAAACTCA	0.0995
GAATGATA	0.254

Sequence	PBM E-score
CGTGTGAG	-0.158
TATGAAGA	0.115
GCATTTTA	0.109
AAGCAATT	0.0745
AGATGTGA	-0.0694
CGGCAAAA	0.0391
CACGAGGC	0.00259
GGGGTCCA	-0.307
CAAGGTAG	-0.16
ACGAGGCA	-0.055
CGGTCGTA	-0.097
GCAAAAGC	0.00797
GCCATCGA	-0.0255
CAGGAGGC	-0.187
AACTAAAC	0.0858
CGCCGGAG	0.0312
CTTCGGTC	0.179
ATCTAAAT	0.116
CTTTCGCA	0.0391
CAATTACC	-0.00784
ATTCTCGA	0.176
GCTTAGTA	-0.0133
ATCGTGAC	0.22
AGTGAACG	0.0171
CCATAGTA	0.13

Sequence	PBM E-score
CTGCTACC	-0.0604
ACGCTACC	-0.266
AAATACGA	0.0698
ACTCCTTG	0.00153
AGCGATTC	-0.0453
ATTTTATC	0.202
AGAGGCCC	-0.282
GCCAACCC	-0.134
GAGGTTAA	-0.0768
GGTTTAGA	0.0228
AAGATCCG	-0.0183
ACTGTGCC	-0.0718
CTAACGAC	-0.0504
GGACAACC	0.303
CGAGGCCC	-0.158
CCCTGAGA	-0.245
CCAACGTA	0.036
ATCCATGC	-0.133
TGAAACAA	0.119
TACGCAGA	0.137
AACCTCCG	-0.0619
TAGTATAA	0.0795
GCGTCCCA	0.0223
AAAGCCCT	-0.255
CGTAAGAC	0.0666

Sequence	PBM E-score
ATCTGGGG	-0.131
GTGTACCA	0.189
CCAGGACC	-0.105
CTCGCGTA	-0.107
GATGTGGC	-0.135
GAGCGGAC	-0.0401
TATATCGA	0.119
ATTCACTA	0.154
CAACGTGG	0.0759
CCAACCCC	-0.16
ACCATTAC	-0.0301
TGCACCCA	-0.165
GACTTCTC	0.124
CATTGTCA	0.158
CGAAAGCA	0.00321
AGGTAGAC	-0.101
ATAGGGTC	-0.215
ATGAGTTA	-0.181
AGCTGCAT	-0.208
CACCTACG	-0.101
ATACTAGA	0.125
CGCGGGTA	-0.0954
AACGACTG	-0.199
TTCCAAAA	0.192
AAATTTCC	0.0146

Sequence	PBM E-score
AGTAGGAT	-0.0677
CAGCAAGG	-0.195
GAGGAAGA	-0.0553
ACAAATGT	0.446
GTTCCATA	-0.0709
CAGTGGCA	-0.201
CAGAATTA	-0.175
AGGGATGA	-0.0174
GCGATACA	0.00094
ATGGCCCC	-0.345
CGAAGTAA	0.00816
ACATCTGA	0.0825
ATATCAAT	0.19
CCGCGCTA	0.0389
CTAGATAA	0.0565
ATCCTCTG	-0.0596
AATTGCAT	-0.00309
ATACGGCA	0.0902
ACGTGTAT	-0.0533
